Source: US20240409609A1, “REVERSIBLE LYSINE COVALENT MODIFIERS OF EGFR AND USES THEREOF” (Terremoto Biosciences, Inc., priority 2021, published 2024)

Assays:
[1] = molecular target: EGFR (d746-750) T790M C797S (Homo sapiens (Human), UniProt P00533, C797S/DEL746-750/T790M); assay: EGFR biochemical assay (AssayQuant chelation-enhanced fluorescence); conditions: read-out: AssayQuant EGFR del19/TM/CS IC50; 30 min preincubation, reaction time 150 min
[2] = molecular target: EGFR T790M C797S L858R in Ba/F3 cells (Homo sapiens (Human), UniProt P00533, C797S/L858R/T790M); assay: Ba/F3 pEGFR assay (AlphaLISA p-EGFR Tyr1068); format: cell-based; conditions: 2 hrs treatment
Experimental: (§1) Cellular activity was determined using the Ba/F3 system for studying oncogenic mutant kinases (Warmuth 2007). […] Transduced cells were maintained in RPMI 1640 with 10% FBS. EGFR WT transduced cells were grown in media supplemented with EGF. To assay cellular activity of inhibitors, cells were treated with inhibitor from 1000X DMSO stock dilutions and incubated for 2 hrs at 37° C. 5% CO2. Subsequently, p-EGFR (Tyr1068) was quantified using a commercial sandwich immunoassay (PerkinElmer AlphaLISA SureFire assay; ALSU-PEGFR) according to the manufacturer's instructions. […] Curr Opin Oncol 19, 55-60 (2007), which is incorporated herein in its entirety.

[3] = molecular target: EGFR del746-750 T790M C797S in Ba/F3 cells (Homo sapiens (Human), UniProt P00533, C797S/DEL746-750/T790M); assay: Ba/F3 pEGFR assay (AlphaLISA p-EGFR Tyr1068); format: cell-based; conditions: 2 hrs treatment; read-out: pEGFR Ba/F3 del19/T790M/C797S IC50
Experimental: as §1

[4] = molecular target: EGFR L858R/T790M/C797S (Homo sapiens (Human), UniProt P00533, C797S/L858R/T790M); assay: EGFR biochemical assay (AssayQuant chelation-enhanced fluorescence); conditions: read-out: AssayQuant EGFR LR/TM/CS IC50; 30 min preincubation, reaction time 150 min

Row | Structure (SMILES) | IC50 [1] | IC50 [2] | IC50 [3] | IC50 [4]
1 | CC(C)(O)Cn1/c(=N/C(=O)c2ccnc(Oc3cccc(O)c3C=O)c2)[nH]c2ccc(N3CCC(C(C)(C)O)CC3)cc21 [Compound 70] | 6.82 nM | 153 nM | 290 nM | 0.972 nM
2 | CN1CCN(C(=O)c2ccc3[nH]/c(=N\C(=O)c4ccnc(Oc5cccc(O)c5C=O)c4)n(CC(C)(C)O)c3c2)CC1 [Compound 71] | 10 nM | 320 nM | 400 nM | 1.08 nM
3 | CN1CCN(Cc2ccc3[nH]/c(=N\C(=O)c4ccnc(C#Cc5ccc(F)c(O)c5C=O)c4)n(CC(C)(C)O)c3c2)CC1 [Compound 72] | 2.48 nM | 5170 nM | 1420 nM | 1.11 nM
4 | COCCN1CCN(Cc2ccc3[nH]/c(=N\C(=O)c4ccnc(Oc5cccc(O)c5C=O)c4)n(CC(C)(C)O)c3c2)CC1 [Compound 75] | 10.1 nM | 161 nM | 212 nM | 1.19 nM
5 | CC(C)(O)Cn1/c(=N/C(=O)c2ccnc(Oc3cccc(O)c3C=O)c2)[nH]c2ccc(CN3CCOCC3)cc21 [Compound 76] | 14.3 nM | 169 nM | 154 nM | 1.2 nM
6 | CC(C)(O)Cn1/c(=N/C(=O)c2ccnc(C#Cc3cccc(O)c3C=O)c2)[nH]c2ccc(CN3CCOCC3)cc21 [Compound 78] | 1.93 nM | 2060 nM | 1440 nM | 1.34 nM
7 | CN1CCN(Cc2ccc3[nH]/c(=N\C(=O)c4ccnc(Oc5cccc(O)c5C=O)c4F)n(CC(C)(C)O)c3c2)CC1 [Compound 82] | 102 nM | 231 nM | 895 nM | 2.52 nM
8 | CN1CCN(Cc2ccc3[nH]/c(=N\C(=O)c4cc(Cl)nc(Cc5cccc(O)c5C=O)c4)n(CC(C)(C)O)c3c2)CC1 [Compound 86] | 13 nM | 765 nM | 1040 nM | 3.84 nM
9 | CN1CCN(Cc2ccc3[nH]/c(=N\C(=O)c4ccnc(C#Cc5cc(F)cc(O)c5C=O)c4)n(CC(C)(C)O)c3c2)CC1 [Compound 89] | 6.82 nM | 3900 nM | 1560 nM | 6.01 nM
10 | CN1CCN(C2CCN(c3ccc4c(c3)[nH]/c(=N\C(=O)c3ccnc(Oc5cccc(O)c5C=O)c3)n4CC(C)(C)O)CC2)CC1 [Compound 91] | 23.5 nM | 859 nM | 1200 nM | 6.53 nM
11 | CC(=O)Nc1cccc(-c2cnn(-c3cc(C(=O)/N=c4\[nH]c5ccc(CN6CCN(C)CC6)cc5n4CC(C)(C)O)ccn3)c2)c1C=O [Compound 95] | 465 nM | 324 nM | 988 nM | 9.55 nM
12 | CN1CCN(Cc2ccc3[nH]/c(=N\C(=O)c4ccnc(N(C)Cc5cccc(O)c5C=O)c4)n(CC(C)(C)O)c3c2)CC1 [Compound 96] | 77.6 nM | 1150 nM | 1340 nM | 13 nM
13 | CN1CCN(Cc2ccc3[nH]/c(=N\C(=O)c4ccnc(C#Cc5cccc(N)c5C=O)c4)n(CC(C)(C)O)c3c2)CC1 [Compound 99] | 31.6 nM | 229 nM | 99.6 nM | 17.9 nM
14 | CN1CCN(Cc2ccc3[nH]/c(=N\C(=O)c4ccnc(C#Cc5cncc(O)c5C=O)c4)n(CC(C)(C)O)c3c2)CC1 [Compound 100] | 73.7 nM | > 10000 nM | > 10000 nM | 18.1 nM
15 | CN1CCN(Cc2ccc3[nH]/c(=N\C(=O)c4ccnc(N5CC(Oc6cccc(O)c6C=O)C5)c4)n(CC(C)(C)O)c3c2)CC1 [Compound 104] | 201 nM | 5280 nM | 5310 nM | 92.2 nM
16 | CN1CCN(Cc2ccc3[nH]/c(=N\C(=O)c4ccc(Oc5cccc(O)c5C=O)cc4)n(CC(C)(C)O)c3c2)CC1 [Compound 105] | 577 nM | > 10000 nM | > 10000 nM | 174 nM
17 | CC(C)(O)Cn1/c(=N/C(=O)c2ccnc(Oc3cccc(O)c3C=O)c2)[nH]c2ccccc21 [Compound 121] | 7.37 nM | 345 nM | 321 nM | 1.45 nM
18 | O=Cc1c(O)cccc1Oc1cc(C(=O)/N=c2\[nH]c3ccccc3n2[C@H]2CC[C@@H](O)CC2)ccn1 [Compound 122] | 3.49 nM | 790 nM | 442 nM | 1.49 nM
19 | O=Cc1c(O)cccc1Oc1cc(C(=O)/N=c2\[nH]c3ccccc3n2CCN2CCOCC2)ccn1 [Compound 123] | 116 nM | 3800 nM | > 10000 nM | 7.42 nM

Next, values leading:

Row | IC50 [1] | IC50 [2] | IC50 [3] | IC50 [4] | Structure (SMILES)
20 | 11 nM | 214 nM | 351 nM | 1.12 nM | CN1CCN(Cc2ccc3[nH]/c(=N\C(=O)c4ccc(Oc5cccc(O)c5C=O)s4)n(CC(C)(C)O)c3c2)CC1 [Compound 73]
21 | 6.22 nM | 135 nM | 162 nM | 1.16 nM | CC(C)(O)Cn1/c(=N/C(=O)c2ccnc(Oc3cccc(O)c3C=O)c2)[nH]c2ccc(N3CCOCC3)cc21 [Compound 74]
22 | 3.87 nM | 673 nM | 462 nM | 1.3 nM | CN1CCN(Cc2ccc3[nH]/c(=N\C(=O)c4ccnc(Oc5ccc(F)c(O)c5C=O)c4)n(CC(C)(C)O)c3c2)CC1 [Compound 77]
23 | 6.57 nM | 213 nM | 276 nM | 1.47 nM | CC(C)(O)Cn1/c(=N/C(=O)c2ccnc(Oc3cccc(O)c3C=O)c2)[nH]c2ccc(CN3CCC(C(C)(C)O)CC3)cc21 [Compound 80]
24 | 3.9 nM | 4940 nM | 7400 nM | 1.61 nM | CN1CCN(Cc2ccc3[nH]/c(=N\C(=O)c4cc(C=O)nc(Oc5cccc(O)c5C=O)c4)n(CC(C)(C)O)c3c2)CC1 [Compound 81]
25 | 7.74 nM | 642 nM | 89.7 nM | 5.64 nM | CN1CCN(Cc2ccc3[nH]/c(=N\C(=O)c4ccnc(-c5cnn(-c6cccc(O)c6C=O)c5)c4)n(CC(C)(C)O)c3c2)CC1 [Compound 88]
26 | 5.64 nM | 158 nM | 48.2 nM | 6.47 nM | CC(=O)Nc1cccc(C#Cc2cc(C(=O)/N=c3\[nH]c4ccc(CN5CCN(C)CC5)cc4n3CC(C)(C)O)ccn2)c1C=O [Compound 90]
27 | 73 nM | 79.1 nM | 230 nM | 7.23 nM | CN1CCN(Cc2ccc3[nH]/c(=N\C(=O)c4ccnc(Oc5ccccc5C=O)c4)n(CC(C)(C)O)c3c2)CC1 [Compound 92]
28 | 356 nM | 158 nM | 1170 nM | 8.07 nM | CN1CCN(Cc2ccc3[nH]/c(=N\C(=O)c4cccc(Oc5cccc(O)c5C=O)n4)n(CC(C)(C)O)c3c2)CC1 [Compound 93]
29 | 39.2 nM | 1750 nM | 1870 nM | 8.27 nM | CN1CCN(Cc2ccc3[nH]/c(=N\C(=O)c4ccnc(-c5ccn(-c6cccc(O)c6C=O)n5)c4)n(CC(C)(C)O)c3c2)CC1 [Compound 94]
30 | 29.1 nM | 1160 nM | 709 nM | 13.8 nM | CC(=O)Nc1cccc(C#Cc2cc(C(=O)/N=c3\[nH]c4ccc(CN5CCN(C)CC5)cc4n3CC(C)(C)O)cc(C)n2)c1C=O [Compound 97]
31 | 93.4 nM | 200 nM | 204 nM | 15.4 nM | CC(=O)Nc1cccc(Oc2cc(C(=O)/N=c3\[nH]c4ccc(CN5CCN(C)CC5)cc4n3CC(C)(C)O)ccn2)c1C=O [Compound 98]
32 | 30.6 nM | 1480 nM | 1310 nM | 18.8 nM | CN1CCN(Cc2ccc3[nH]/c(=N\C(=O)c4ccnc(C#Cc5cccc(NC(=O)C(F)(F)F)c5C=O)c4)n(CC(C)(C)O)c3c2)CC1 [Compound 101]
33 | 13.8 nM | > 10000 nM | 6900 nM | 28.5 nM | Cc1cc(C(=O)/N=c2\[nH]c3ccc(CN4CCN(C)CC4)cc3n2CC(C)(C)O)cc(-n2cc(-c3cccc(O)c3C=O)cn2)n1 [Compound 102]
34 | 1.8 nM | 1220 nM | 1270 nM | 0.904 nM | CN1CCN(Cc2ccc3[nH]/c(=N\C(=O)c4cc(Oc5cccc(O)c5C=O)c5sccc5c4)n(CC(C)(C)O)c3c2)CC1 [Compound 107]
35 | 87.2 nM | 421 nM | 435 nM | 8.05 nM | CN1CCN(Cc2ccc3[nH]/c(=N\C(=O)c4cncc(Oc5cccc(O)c5C=O)n4)n(CC(C)(C)O)c3c2)CC1 [Compound 108]
36 | 1.2 nM | 40.6 nM | 43.4 nM | 0.119 nM | CN1CCN(Cc2ccc3[nH]/c(=N\C(=O)c4ccc(F)c(Oc5cccc(O)c5C=O)c4)n(CC(C)(C)O)c3c2)CC1 [Compound 110]
37 | > 1000 nM | > 10000 nM | > 10000 nM | > 1000 nM | CN1CCN(Cc2ccc3[nH]/c(=N\C(=O)c4ccnc(OCc5cccc(O)c5C=O)c4)n(CC(C)(C)O)c3c2)CC1 [Compound 112]
